{"source": "PubChem BioAssay AID1234", "about": "(University of Pittsburgh Molecular Library Screening Center, 2008)", "note": "The other results are listed elsewhere or left out. The main result of the screen is listed elsewhere. These columns were measured beside it and carry no call.", "data": [{"experiment": "DTT-dependent H2O2 generation by redox cyclers, dose response, artefact control for MLSCN library redox annotation, biochemical, 10-point concentration response, NIH library profiling (AID 1234)", "conditions": "DTT-dependent redox cycling H2O2, phenol red-HRP absorbance, at 50 µM, stronger effect = higher value", "units": {"activation": "%"}, "values": [{"smiles": "Oc1ccc(-c2onc(C(F)(F)F)c2-c2cscn2)c(O)c1", "activation": -1.17}, {"smiles": "O=S(=O)(Nc1cc2nc3ccccc3nc2n1Cc1ccccc1)c1ccc(Cl)cc1", "activation": 98.9}, {"smiles": "CC1(C)CC(=O)C=C(N2CCNCC2)C1", "activation": -0.68}, {"smiles": "O=C(COC(=O)c1ccc([N+](=O)[O-])s1)Nc1ncc(C(F)(F)F)cc1Cl", "activation": 3.25}, {"smiles": "Cc1ccc(S(=O)(=O)/N=C2/C=C(Sc3ncn[nH]3)C(=O)c3ccccc32)cc1", "activation": 116}, {"smiles": "Cn1nc(-c2ccc(Cl)cc2)nc2c(=O)n(C)c(=O)nc1-2", "activation": 111}, {"smiles": "CC(C)c1ccc(S(=O)(=O)/N=C2/C=C(Sc3ncn[nH]3)C(=O)c3ccccc32)cc1", "activation": 121}, {"smiles": "Cc1ccc(C)c(S(=O)(=O)Nc2cc(SCC(=O)O)c(O)c3ccccc23)c1", "activation": 114}, {"smiles": "O=C1C(Nc2ccccc2)=C/C(=N/S(=O)(=O)c2cccs2)c2ccccc21", "activation": 0.22}, {"smiles": "CC(C)CN(C(=O)COC(=O)c1ccc([N+](=O)[O-])o1)C1CCS(=O)(=O)C1", "note": "(stereo not given)", "activation": 15.3}, {"smiles": "Cc1ccc(S(=O)(=O)/N=C2/C=C(Sc3ncn[nH]3)C(=O)c3ccccc32)c(C)c1", "activation": 127}, {"smiles": "CCCc1nc2c(=O)n(C)c(=O)nc-2n(C)n1", "activation": 111}, {"smiles": "C/C(=N/Nc1ccc(C(=O)O)cc1)c1ccc(O)c(O)c1O", "activation": -0.76}, {"smiles": "CCCCn1c(NC(=O)c2ccccc2Cl)c(C#N)c2nc3ccccc3nc21", "activation": 127}, {"smiles": "Cc1cc(C)c(S(=O)(=O)Nc2cc(SCC(=O)O)c(O)c3ccccc23)cc1C", "activation": -1.47}, {"smiles": "O=C(COC(=O)c1ccccc1OCc1ccccc1Cl)NC1CC1", "activation": 0.57}, {"smiles": "O=C(COC(=O)c1ccc([N+](=O)[O-])s1)NCc1ccccc1", "activation": 71.1}, {"smiles": "COC1=C(N)C(=O)c2nc(-c3nc(C(=O)O)c(C)c(-c4ccc(OC)c(OC)c4O)c3N)ccc2C1=O", "activation": 122}, {"smiles": "CCC(C)n1c(NC(=O)c2ccccc2)c(C#N)c2nc3ccccc3nc21", "note": "(stereo not given)", "activation": 0.29}, {"smiles": "CCOc1ccc(NC(=S)Nc2ccc3nsnc3c2)cc1", "activation": 90.2}, {"smiles": "C=CCn1c(NS(=O)(=O)c2ccccc2)c(S(=O)(=O)c2ccc(C)cc2)c2nc3ccccc3nc21", "activation": 17.9}, {"smiles": "Cc1ccc(NC2=C/C(=N\\S(=O)(=O)c3cccs3)c3ccccc3C2=O)c(C)c1", "activation": 94.8}, {"smiles": "CCOC(=O)c1c2c(n(C)c1C)C(=O)C(=O)c1ccc(Br)cc1-2", "activation": 115}, {"smiles": "CNC1=C(N(C(C)=O)c2ccc(Br)cc2)C(=O)c2ccccc2C1=O", "activation": 94.2}, {"smiles": "CC(=O)Nc1cc(OC(C)=O)c2nonc2c1OC(C)=O", "activation": 133}]}]}
